Data reported in the RNAGym collection of RNA variant scans (doi:10.7554/elife.90254).
The source gives no read counts; variants with many changes may rest on few reads.

B1: LINE1-mini (parent)
chain: GGCAGAGCUCAACACAGCGUGGCAAAGUGGCUGUGGCUAGACUGCC

Variants of: B1
Experiment: self-cleavage, relative activity (ratio to wild type); higher = more cleavage; in vitro, sequencing; the parent is a self-cleaving ribozyme

Row | Variant | self-cleavage
1 | C31G A39U C42U | 0.08
2 | G2U G17U G19A U34A G35U | 0.02
3 | G19C A39C U43A | 0.04
4 | C8G C13U A24G G27C G29C G36C | 0.03
5 | G7U U20G C42U | 0.02
6 | G2U G7A G17C A25G C37A | 0.03
7 | A16G G19U C42G | 0.02
8 | G2U C18G A26U U34C C46A | 0.03
9 | A12C G30C C42G G44C | 0
10 | G5U A25U G36A | 0.05
11 | G1A C3G G29C C42A | 0.03
12 | A16C G19C U34A | 0
13 | G1A A14U C18G G19C G22U G27C | 0.07
14 | G5A C15U C42G | 0.04
15 | G22U C23U U28C | 1.45
16 | C10A C15G G21U | 0
17 | U9C U20G A26U A39G C45U | 0
18 | C3A C10U G33C U34G | 0.08
19 | C10U C31U G36A | 0.02
20 | G22C G30C A39U | 2.36
21 | G2A A6G G22A A25U G35A | 0.06

Row | Variant | self-cleavage
22 | U9C C13A U28G | 0.01
23 | C10G U34G C45G | 0.01
24 | C8G C13A U20C G22C A25U A26G G27U A41C | 0.03
25 | G2U C3G G30U | 0.12
26 | A24U A25C C42U G44U | 0.03
27 | G19U G22U C31A U32C C46U | 0.1
28 | A6G G19U A24C C31U | 0.06
29 | C8G G21A A25G G44U | 0.04
30 | C10G G22U C23A | 0.29
31 | C8A C18U G29U C37U | 0.14
32 | C3U A25U U32C | 0.26
33 | G1A A11G A16C G19A C37G | 0.06
34 | A6U C10G G22A A24U | 0.06
35 | G2A A24U A25U | 0.74
36 | G7C C23A A39G G40A C46A | 0.01
37 | G2A A24G C42A | 0.37
38 | C8G C23G A25G A26C G27U G30A G33C C46A | 0.01
39 | C18U U34G A39G C46U | 0.01
40 | A24G G29A C45A | 0.62
41 | G22A C42A C46G | 0.29
42 | G7U G19C G40A | 0.11

Row | Variant | self-cleavage
43 | C3U G7U C8G G36A G40C | 0.05
44 | G2C A12C G33C C42G | 0
45 | U34G A39G G44C | 0.03
46 | A26C C31U G35C C37U | 0.04
47 | G7U A14G G29A U32C | 0.24
48 | G22C A39U C45U | 0.61
49 | C3G G36A A41U | 0.18
50 | A4U C13G G21A | 0.2
51 | G2C A14C A16U G22U G27A | 0.38
52 | A4C G5A G7C C23U | 0.89
53 | G7U C31A G35C | 0.07
54 | C10U G27C U28C A39C G44C | 0
55 | C10U A14C G19A C31G | 0.01
56 | A11C C13A C15G G40C | 0.01
57 | C15G C18U G21U U32A A41U | 0.04
58 | G2A G22C G35U C42U | 0.94
59 | G5U U9A A11G U20C C37G | 0
60 | C10U C13A G19C U20A | 0.04
61 | A16G U28C C46G | 0.06
62 | G1C G19A U32G | 0.02
63 | G1A C3G A6G | 0.5

Row | Variant | self-cleavage
64 | A6U G19A A24G C31U | 0.18
65 | C10A U28C C42A | 0.04
66 | A12U U20A G30U | 0.2
67 | A12U G27C A39U C42U | 0.11
68 | C13A A25C G35A A39U | 0.02
69 | C10U G27A U43C | 0.03
70 | G5A C8U C10U C18G C45U | 0.04
71 | C8A G19U U34A A39C | 0.2
72 | G19A U28C G33A A41U | 0.03
73 | G1C A26U C42U | 0
74 | G1C G5U A6C A11U U20A | 0
75 | G5U C13U G17A A41C | 0.01
76 | G2C A6U A12C G22A G40A | 0.01
77 | A25U U38A A39U | 0.27
78 | G1U C3G A14G G22C G44C | 0.14
79 | G29A U32C G35U G36U | 0.05
80 | G21A G30A G40C U43G | 1.07
81 | A14C G22U G30U C31G G35U | 0.06
82 | A12U C23U U32C G36A C37A | 0.01
83 | G29C G36A U38C C46A | 0.05
84 | A4C C37U A41C C42U | 0.06
